# From PubChem BioAssay AID588342 (National Center for Advancing Translational Sciences (NCATS), 2011)
# In all, about 360,000 compounds went through this assay and about 25,000 (6.9%) were called active. Inconclusive results, whose numbers are uncertain, are shown with a selection of clear calls. The call rests on the fitted dose curve; in most records, active means well fitted inhibition curve with a large enough effect; inconclusive means small, poorly fitted or top-dose-only effect; inactive means flat fitted curve, though single readings scatter. Potencies of inconclusive entries are doubtful fits and often do not repeat.
# Biological target: Luciferin 4-monooxygenase (Photinus pyralis) (UniProt P08659)
# Test: qHTS profiling assay for firefly luciferase inhibitor/activator using purifed enzyme and Km concentrations of substrates (counterscreen for miR-21 project); further: nearly all actives have a fitted effect of over 55% in size;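 on activity change, negative = inhibition: plate controls were vehicle for no effect and reference inhibitor for full effect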
# Conditions: purified FLuc, luminescence inhibition; series mostly up to 57.5 µM; activity change, negative = inhibition: at the top concentration
# Method in brief: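 Purified P. pyralis luciferase, 10 nM final, with Km-level 10 uM D-luciferin and 10 uM ATP in 50 mM Tris acetate pH 7.5, 10 mM Mg acetate, 0.01% Tween-20, 0.05% BSA; 6-point qHTS titration about 60 µM downward; luminescence read.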
# Potency means the concentration at half of the fitted maximal effect; tags describe the fitted curve by direction and shape.
# UniProt P08659, sequence (P08659 whole entry, looked up): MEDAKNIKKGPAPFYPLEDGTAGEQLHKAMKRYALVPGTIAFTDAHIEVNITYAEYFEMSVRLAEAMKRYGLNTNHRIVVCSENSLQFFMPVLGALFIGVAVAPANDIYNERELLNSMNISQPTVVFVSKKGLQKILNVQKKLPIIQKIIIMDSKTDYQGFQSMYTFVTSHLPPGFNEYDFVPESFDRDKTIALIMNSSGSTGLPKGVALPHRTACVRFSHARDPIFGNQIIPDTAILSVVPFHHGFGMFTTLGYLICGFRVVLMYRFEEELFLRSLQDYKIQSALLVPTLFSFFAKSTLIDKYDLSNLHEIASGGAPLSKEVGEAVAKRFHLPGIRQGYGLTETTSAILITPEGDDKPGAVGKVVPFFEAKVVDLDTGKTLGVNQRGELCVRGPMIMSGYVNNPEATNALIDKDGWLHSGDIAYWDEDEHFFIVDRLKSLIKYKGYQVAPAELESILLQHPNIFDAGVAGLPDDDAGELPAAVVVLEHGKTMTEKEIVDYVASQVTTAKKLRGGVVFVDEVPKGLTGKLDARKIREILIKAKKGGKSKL
SMILES,"activity change, negative = inhibition",Potency
Cc1onc(-c2ccccc2Cl)c1C(=O)N1CCN(c2nc3ccccc3s2)CC1,inactive: 0.081%,
Cc1oc2c(C)c3oc(=O)c(CC(=O)N[C@@H](CC(C)C)C(=O)N[C@@H](Cc4ccccc4)C(=O)O)c(C)c3cc2c1C,,"inconclusive: 37.9 µM [inhibitor, partial curve, poor fit]"
Cc1nc(-c2ccccc2)sc1C(=O)/C=C/N(C)C,,"inconclusive: 21.3 µM [inhibitor, partial curve]"
Cc1c(C(=O)Nc2ccccc2F)sc2ncn(CC(=O)N3CCOCC3)c(=O)c12,inactive: -9.72%,
COc1ccc(OC)c(-c2csc(-c3cccs3)n2)c1,,"inconclusive: 21.3 µM [inhibitor, single point]"
CCc1c(C)[nH]c(=S)c(C#N)c1C,,"inconclusive: 23.9 µM [inhibitor, partial curve, poor fit]"
CC(=O)Nc1c(C)nn(-c2ccccc2)c1N1CCC(C(=O)NCc2cccc(Cl)c2)CC1,inactive: -8.86%,
COc1cc(Cl)c(NC(=O)CCc2nc3cccnc3n2-c2ccccc2)c(OC)c1,inactive: -1.46%,
O=C(CSc1cccc2cccc(Cl)c12)NC1=NCCS1,,"inconclusive: 37.9 µM [inhibitor, partial curve, poor fit]"
CN(Cc1ccccc1)C(=O)c1ccc(NC(=O)C2=CSCCO2)cc1,,"inconclusive: 26.9 µM [inhibitor, partial curve, poor fit]"
CCCCc1nc2cc(C(=O)NCc3cn(C)nc3C)ccc2o1,,"inconclusive: 13.5 µM [inhibitor, partial curve, poor fit]"
CCOc1ccc(CNC(=O)Cn2ccc3cc(S(=O)(=O)N4CCCC4)ccc32)cc1,,"inconclusive: 21.3 µM [inhibitor, partial curve, poor fit]"
CCOC(=O)c1c(NC(=O)c2noc(C)c2[N+](=O)[O-])sc(C(C)=O)c1C,,"inconclusive: 16.9 µM [inhibitor, partial curve, poor fit]"
O=C(NCCc1nc2ccccc2n1Cc1c(F)cccc1Cl)c1ccco1,inactive: -12.5%,
Cc1ccc(NC(=O)c2cnc(SCC(=O)N3CCCc4ccccc43)n(C)c2=O)cc1,,"inconclusive: 21.3 µM [inhibitor, single point]"
CCn1c(CSc2nc3ccccc3s2)n[nH]c1=S,,"inconclusive: 21.3 µM [inhibitor, partial curve, poor fit]"
O=C(c1cccc(N2C(=O)C3CC=CCC3C2=O)c1)N1CCCc2ccccc21 (centres undefined),,"inconclusive: 37.9 µM [inhibitor, partial curve, poor fit]"
C=CCN1C(=O)C(CC(=O)O)S/C1=N/N=C/c1ccc(N(CC)CC)cc1 (centres undefined),,active: 21.3 µM
O=[N+]([O-])c1ccc2nc(-c3ccncc3)[nH]c2c1,,active: 16.9 µM
COc1ccc(C)cc1N(CC(=O)N1CCCCCC1)S(C)(=O)=O,inactive: -2.1%,
CCCN(CCC)C(=O)c1cc(-c2ccc3c(c2)OCO3)nc2ccccc12,,"inconclusive: 15.1 µM [inhibitor, partial curve]"
COCCCNc1ccnc2c(Cl)cccc12,,"inconclusive: 16.9 µM [inhibitor, partial curve]"

SMILES,"activity change, negative = inhibition",Potency
COc1ccc(OC)c(NC(=O)CSc2nnc(NC(=O)c3ccco3)s2)c1,,active: 26.9 µM
Nc1nc(-c2ccccc2)cc(-c2ccccc2)n1,,"inconclusive: 21.3 µM [inhibitor, partial curve, poor fit]"
Cc1ccc(C(=O)Nc2ccccc2Sc2ccccc2)cc1,,"inconclusive: 23.9 µM [inhibitor, single point]"
CC1CCC(N2CC(=O)N(CCC3=CCCCC3)C(c3ccc(F)cc3)C2=O)CC1 (centres undefined),inactive: 3.29%,
C/C(Cl)=C/CSc1nn2c(=O)c3ccccc3nc2s1,,active: 12 µM
COc1ccc(S(=O)(=O)N2CCN(C(=O)c3ccc4ccccc4n3)CC2)cc1,inactive: 0.0754%,
CCOc1ccc(NC(=O)c2c(NCc3cccnc3)sc3c2CCC(C)C3)cc1 (centres undefined),inactive: -19.8%,
CC1(C)CCC(=O)N2CC[C@H]3C[C@H](OC(=O)Nc4ccc5c(c4)OCO5)C[C@@H]1[C@H]32,,active: 15.1 µM
CC(=O)c1sc(NC(=O)c2c(-c3ccccc3)c(-c3ccccc3)nn(C)c2=O)nc1C,,"inconclusive: 10.7 µM [inhibitor, partial curve]"
CCN(CC(=O)NCc1ccc(F)cc1)C(=O)CN1CCN(c2cc(Cl)ccc2C)CC1,inactive: -0.702%,
CCCOc1ccc(-c2cn3ccccc3n2)cc1,,active: 0.379 µM
O=C(CC1SC(N2CCCCC2)=NC1=O)Nc1cccc(C(=O)NCc2ccc(F)cc2)c1 (centres undefined),,"inconclusive: 26.9 µM [inhibitor, single point]"
C[C@H]1CCC(=O)N([C@H](CSc2ccc(Br)cc2)Cc2ccccc2)CC1,inactive: 2.32%,
Cc1cccc(-c2nc(CCNC(=O)c3ccc(Br)o3)cs2)c1,,"inconclusive: 30.1 µM [inhibitor, single point]"
CCc1ccc(NC(=O)CSc2nnc(CNC(=O)c3ccc(OC)cc3)o2)cc1,,"inconclusive: 12 µM [inhibitor, partial curve]"
N#C/C(=C\c1ccc(O)c(O)c1)C(=O)N1CCc2ccccc21,,"inconclusive: 21.3 µM [inhibitor, single point]"
Cn1c(SCC(=O)Nc2ccc(Cl)cc2F)nnc1-c1ccco1,inactive: -1.56%,
O=S(=O)(Nc1ccc(-c2ccc(N3CCCC3)nn2)cc1)c1ccc(C(F)(F)F)cc1,,"inconclusive: 10.7 µM [inhibitor, partial curve, poor fit]"
COc1ccc(NC(=O)C(=O)Nc2cccc3ccccc23)c(OC)c1,,"inconclusive: 12 µM [inhibitor, partial curve]"
O=C(NNC(=S)Nc1ccccc1)c1ccc(O)cc1,,"inconclusive: 33.8 µM [inhibitor, partial curve, poor fit]"
Cc1ccc(S(=O)(=O)N2CCC(C(=O)OC(C)C(=O)N3CCOCC3)CC2)cc1 (centres undefined),,"inconclusive: 8.49 µM [inhibitor, single point]"
COc1cc(Cl)ccc1OCc1cc(C(=O)N2CCN(c3ccccn3)CC2)no1,,"inconclusive: 30.1 µM [inhibitor, partial curve, poor fit]"
